In all, about 340,000 compounds went through this assay and about 12,000 (3.5%) were called active. The inconclusive results got no clear call from the source; some entries with a clear call stand among them for comparison. The call rests on the fitted dose curve; in most records, active means well fitted inhibition curve with a large enough effect; inconclusive means small, poorly fitted or top-dose-only effect, or another doubt; inactive means no such curve, though single readings can be large or run the other way. No potency is given beside an inconclusive call; the fits are too rough.
test: qHTS Assay for Inhibitors of Hepatitis C Virus (HCV); conditions: Huh7.5.1 HCVcc-Cre (HCVcc is cell-culture hepatitis C virus) infection, luciferase reporter, 44 h; activity change, negative = inhibition: at 41.8 µM (top of the series) unless noted
Outline: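 Compounds are dispensed onto cells plated 4 h earlier at 1,000 per well, with HCVcc-Cre virus (about 0.5 moi) added next. Following 44 h of culture, luminescent signal is measured for 15 sec after 15 min with substrate at room temperature.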
On the % scale 0 is the no-effect control and ±100 the full control effect; potency means the concentration at half of the fitted maximal effect; tags describe the fitted curve by direction and shape.

SMILES	Potency	activity change, negative = inhibition
O=C(Nc1cccc(-c2cnc3ccccc3n2)c1)c1ccco1	inconclusive [inhibitor, single point]	–
COc1cccc(CN2CCCN(S(=O)(=O)c3ccc(Br)cc3)CC2)c1	inconclusive [inhibitor, single point]	–
O=C(NCC1CC1)c1onc(CSc2ccc(F)c(F)c2)c1C(=O)NCC1CC1	inconclusive [inhibitor, partial curve, poor fit]	–
CCCCOc1ccc(S(=O)(=O)N2CCCCC2)cc1	inconclusive [inhibitor, single point]	–
CC(=O)NC(=S)Nc1ccc(NC(=O)COc2ccc(Cl)cc2Cl)cc1	inconclusive [inhibitor, partial curve]	–
CCC1Sc2ccc(S(=O)(=O)CCC(=O)NCc3cccs3)cc2NC1=O (stereo not drawn)	inconclusive [inhibitor, single point]	–
COCCn1c(SCC(=O)NC(C)c2ccc(F)cc2)nc2ccccc21 (stereo not drawn)	inconclusive [inhibitor, partial curve, poor fit]	–
O=C(c1cnn2c(C(F)(F)F)cc(-c3cccs3)nc12)N1CCN(Cc2ccccc2)CC1	inconclusive [inhibitor, partial curve]	–
O=C(NCCc1ccccc1)C1CCN(c2ncccn2)CC1	inconclusive [inhibitor, single point]	–
O=C(NCC(=O)N1CCN(Cc2ccccc2)CC1)c1ccc(Br)cc1	inconclusive [inhibitor, single point]	–
O=C(Cc1c(F)cccc1Cl)Nc1nc2ccccc2s1	inconclusive [inhibitor, single point]	–
COc1cccc(N2CCN(C(=O)CC(NC(=O)c3ccccc3)c3ccccc3)CC2)c1 (stereo not drawn)	–	inactive: -3.71%
CCCCCc1ccc(CC(=O)N2CCOCC2)cc1	–	inactive: 3.4%
CN(C)CCN(C(=O)c1ccc(S(=O)(=O)N2CCCC2)cc1)c1nc2ccc(Br)cc2s1	–	inactive: -28.8%
O=C1c2ccc3c4c(ccc(c24)C(=O)N1CCCCO)C(=O)N(CCCCO)C3=O	active: 7.08 µM	–
CCOc1ccc(NC(=O)CN(C)C(=O)c2ccc(OCc3ccccc3)c(OC)c2)cc1OCC	inconclusive [inhibitor, full curve, poor fit]	–
CC(C)(C)c1ccc(C(=O)Nc2ccc(C(=O)NCc3cccnc3)cc2)cc1	inconclusive [inhibitor, single point]	–
CC(C)NC(=S)N=Nc1c(O)[nH]c2ccc(C(C)C)cc12	inconclusive [inhibitor, partial curve]	–

Reference: PubChem BioAssay AID651820 (National Center for Advancing Translational Sciences (NCATS), 2012)
